About 31,000 (8.9%) of roughly 350,000 compounds were called active. The shares of active, inactive and inconclusive entries below differ from those in the screen. Calls follow the shape of the dose curve; as a rule, active = well fitted inhibition curve with a large enough effect; inconclusive = small, poorly fitted or top-dose-only effect; inactive = no such curve, though single readings can be large or run the other way. Potencies of inconclusive entries are doubtful fits and often do not repeat.
target: Histone-lysine N-methyltransferase EHMT2 (Homo sapiens) (UniProt Q96KQ7); experiment: qHTS Assay for Inhibitors of Histone Lysine Methyltransferase G9a; conditions: G9a H3K9 monomethylation, AlphaScreen, 2 h; activity, negative = inhibition: at 59 µM (top of the series) unless noted; also: nearly all actives have a fitted effect of over 75% in size
Summary of the method: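 Compounds were preincubated with 20 nM G9a for 15 min, after which biotinylated H3K9 peptide (500 nM) and SAM (20 uM) started a 2 h room-temperature reaction. Monomethylated product was quantified by antibody-based AlphaScreen chemiluminescence.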
% is scaled to controls: 0 for no effect and ±100 for the full control effect; potency is read from the fitted curve at half-maximal effect; tags tell the direction and shape of the fitted curve.

UniProt Q96KQ7, sequence (Q96KQ7 whole entry, looked up): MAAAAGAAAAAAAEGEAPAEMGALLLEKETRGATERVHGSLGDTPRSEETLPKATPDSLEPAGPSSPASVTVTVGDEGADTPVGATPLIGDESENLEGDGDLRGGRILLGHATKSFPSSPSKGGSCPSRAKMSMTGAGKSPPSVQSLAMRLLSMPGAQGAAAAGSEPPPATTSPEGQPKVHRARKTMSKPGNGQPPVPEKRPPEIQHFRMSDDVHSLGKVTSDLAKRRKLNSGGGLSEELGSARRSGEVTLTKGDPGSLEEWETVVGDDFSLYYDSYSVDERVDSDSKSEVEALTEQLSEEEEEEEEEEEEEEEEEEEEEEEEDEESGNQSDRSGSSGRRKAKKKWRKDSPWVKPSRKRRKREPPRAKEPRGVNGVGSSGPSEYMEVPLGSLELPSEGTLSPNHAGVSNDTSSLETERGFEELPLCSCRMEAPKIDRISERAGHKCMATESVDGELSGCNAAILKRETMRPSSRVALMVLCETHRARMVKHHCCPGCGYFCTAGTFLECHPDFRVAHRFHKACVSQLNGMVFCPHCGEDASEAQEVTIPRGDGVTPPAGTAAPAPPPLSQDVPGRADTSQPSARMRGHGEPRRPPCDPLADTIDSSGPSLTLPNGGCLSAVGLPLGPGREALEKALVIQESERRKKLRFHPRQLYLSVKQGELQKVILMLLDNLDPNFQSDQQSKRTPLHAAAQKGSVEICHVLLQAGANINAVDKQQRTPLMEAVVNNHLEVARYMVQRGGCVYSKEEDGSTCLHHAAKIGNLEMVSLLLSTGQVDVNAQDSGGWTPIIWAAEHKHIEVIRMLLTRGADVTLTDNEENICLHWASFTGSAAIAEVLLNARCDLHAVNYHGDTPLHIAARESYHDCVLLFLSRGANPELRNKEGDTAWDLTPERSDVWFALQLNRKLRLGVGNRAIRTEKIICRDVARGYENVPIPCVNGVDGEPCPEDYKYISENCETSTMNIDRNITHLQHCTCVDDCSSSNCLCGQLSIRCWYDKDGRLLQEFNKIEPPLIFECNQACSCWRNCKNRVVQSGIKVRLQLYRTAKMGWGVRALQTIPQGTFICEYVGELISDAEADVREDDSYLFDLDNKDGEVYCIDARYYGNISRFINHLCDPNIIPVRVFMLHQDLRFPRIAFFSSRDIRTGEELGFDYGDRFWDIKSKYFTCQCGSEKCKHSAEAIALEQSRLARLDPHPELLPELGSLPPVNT

Question: COc1cccc(N2C(=O)CSC23C(=O)N(CC(=O)Nc2cc(C)ccc2C)c2ccccc23)c1 (stereo unspecified) was tested. Which Potency did it give?
Answer: inactive

Question: How did the Potency turn out when N#CC1=C(N)Oc2[nH]c(=S)[nH]c(=O)c2C12C(=O)Nc1ccccc12 (stereo unspecified) was run?
Answer: active: 35.5 µM

Question: With Cc1ccc(Cn2c(C)c(CNC3CCCCC3)c(C(=O)O)c2C)cc1 as the molecule, how does the Potency read?
Answer: inactive

Question: Cc1ccc(NCC(=O)NNC2=NCCC2)c(C)c1 was tested. Which Potency did it give?
Answer: inconclusive: 3.55 µM [inhibitor, full curve, poor fit]

Question: Which Potency does the source give for Cc1ccc(COc2ccccc2C(=S)N2CCCC2)cc1 here?
Answer: active: 12.6 µM

Question: Which Potency does the source give for Cc1nnc(SC(C)C(=O)Nc2c(C)n(C)n(-c3ccccc3)c2=O)n1N (stereo unspecified) here?
Answer: inconclusive: 56.2 µM [inhibitor, partial curve, poor fit]

Question: How did the activity, negative = inhibition turn out when CC(C)C(=O)Nc1ccc(C(=O)NNC(=S)NC(=O)c2ccco2)cc1 was run?
Answer: inconclusive: -98.8% [inhibitor]

Question: How did the Potency turn out when Cc1cc(C)c(NC(=O)c2sc3nc(C)cc(C)c3c2N)c(C)c1 was run?
Answer: inconclusive: 28.2 µM [inhibitor, single point]

Question: For CC1=NOC(=O)/C1=C/c1ccc(N(C)C)cc1, which Potency is on record?
Answer: inconclusive: 50.1 µM [inhibitor, partial curve]

Question: CCOc1ccc(Br)cc1CNCc1cccnc1 was tested. Which Potency did it give?
Answer: inconclusive: 2.82 µM [inhibitor, single point]

Question: For Cc1cccc(N2C(S)=C(C#N)C(=O)NC23CCCCC3)c1, which Potency is on record?
Answer: inconclusive: 39.8 µM [inhibitor, single point]

Question: With CCOC(=O)Cc1csc(NC(=S)NC(=O)c2ccccc2)n1 as the molecule, how does the Potency read?
Answer: inconclusive: 6.31 µM [inhibitor, partial curve, poor fit]

Question: Which activity, negative = inhibition does the source give for CCOC(=O)c1[nH]cnc1C(=O)Nc1cccc(Cl)c1 here?
Answer: inconclusive: -76.6% [inhibitor]

Question: For Cc1ccc(-c2nc(N/N=C/c3cccc([N+](=O)[O-])c3)c3ccccc3n2)cc1, which Potency is on record?
Answer: active: 39.8 µM

Question: With COC(=O)CCN(C(=O)c1cc([N+](=O)[O-])cc([N+](=O)[O-])c1)c1ccccn1 as the molecule, how does the Potency read?
Answer: inconclusive: 0.891 µM [inhibitor, full curve, poor fit]

Question: CCOC(=O)c1sc(NC(=O)CSc2nncn2C)nc1C was tested. Which Potency did it give?
Answer: inactive

Question: With Fc1cccc(CN2CCC(Cc3ccccc3)CC2)c1 as the molecule, how does the Potency read?
Answer: active: 28.2 µM

Question: Which Potency does the source give for O=S(=O)(c1ccc(Cl)cc1)n1c(Cc2ccccc2)nc2ccccc21 here?
Answer: inconclusive: 1.41 µM [inhibitor, full curve, poor fit]

Question: How did the Potency turn out when Cc1nn(C)cc1CNC(=O)Nc1cccc(Cl)c1 was run?
Answer: inconclusive: 15.8 µM [inhibitor, partial curve, poor fit]

Question: For COc1ccc(S(=O)(=O)N2CCOC2CNC(=O)C(=O)NCC(C)C)cc1OC (stereo unspecified), which Potency is on record?
Answer: inconclusive: 17.8 µM [inhibitor, partial curve, poor fit]

Question: With COc1ccc(C2c3[nH]c4ccccc4c3C[C@H]3C(=O)N(C4CCN(Cc5ccccc5)CC4)CC(=O)N23)cc1OC (stereo partly specified) as the molecule, how does the Potency read?
Answer: active: 12.6 µM

Question: How did the activity, negative = inhibition turn out when Cc1nc2cnc(N(C)C)nc2n(Cc2ccc(F)cc2)c1=O was run?
Answer: inactive: -7.47% [at 12.7 µM]

Question: With O=C1C2=C(Nc3ccccc3SC2c2c(F)cccc2Cl)c2ccccc21 (stereo unspecified) as the molecule, how does the Potency read?
Answer: inconclusive: 12.6 µM [inhibitor, partial curve, poor fit]

Question: COc1cccc(NC(=S)Nc2cc(C(=O)O)ccc2N2CC3CC(C2)c2cccc(=O)n2C3)c1 (stereo unspecified) was tested. Which Potency did it give?
Answer: active: 39.8 µM

Question: Which Potency does the source give for COc1ccc(NC(=O)Nc2cn(CC(C)C)c(=O)c3ccccc23)c(OC)c1 here?
Answer: inconclusive: 8.91 µM [inhibitor, partial curve, poor fit]

Question: Which Potency does the source give for CCOC(=O)N1CCC(NC(=O)c2cnn(-c3cccc(C)c3)c2-n2cccc2)CC1 here?
Answer: inactive

Question: CC(=O)N1CCCc2cc(S(=O)(=O)N3CCC(C(=O)NC4CCCCC4)CC3)ccc21 was tested. Which Potency did it give?
Answer: inactive

Question: How did the Potency turn out when Cn1cc[nH]c1=S was run?
Answer: active: 44.7 µM

Question: O=C(N/N=C/c1cc(Cl)cc([N+](=O)[O-])c1O)c1cccc(S(=O)(=O)N2CCOCC2)c1 was tested. Which Potency did it give?
Answer: active: 50.1 µM

Question: For COc1nccc(C(F)(F)F)c1C(=O)Nc1ccc(Cl)cc1, which Potency is on record?
Answer: inactive

Question: Which Potency does the source give for CCN(CC)c1ccc(/C=N/N2CC(=O)NC2=S)cc1 here?
Answer: active: 7.94 µM

Question: Which Potency does the source give for COC(=O)c1ccc(NS(=O)(=O)c2ccc3[nH]c4c(c3c2)CCCCC4)cc1 here?
Answer: inconclusive: 31.6 µM [inhibitor, partial curve, poor fit]

Question: COC(=O)c1ccc(CSc2nnc(C)s2)cc1 was tested. Which Potency did it give?
Answer: inactive

Question: Cn1cccc1C(=S)N1CCOCC1 was tested. Which activity, negative = inhibition did it give?
Answer: inconclusive: -103% [inhibitor]

Question: How did the Potency turn out when CNCc1ccccc1Sc1cccc(O)c1 was run?
Answer: inactive

Question: How did the Potency turn out when Cc1ccc(C)c(S(=O)(=O)NCC(c2ccc(N(C)C)cc2)N2CCOCC2)c1 (stereo unspecified) was run?
Answer: inconclusive: 17.8 µM [inhibitor, partial curve]

Question: CCCCC(NC(=O)Cc1c(C)c2cc3c4c(oc3cc2oc1=O)CCCC4)C(=O)O (stereo unspecified) was tested. Which Potency did it give?
Answer: inconclusive: 39.8 µM [inhibitor, single point]

Question: How did the Potency turn out when Cc1ccccc1-n1nc(SCC(=O)O)sc1=S was run?
Answer: active: 50.1 µM

Question: Cc1ccc(C)c(NC(=O)C(C)N(c2ccccc2)S(C)(=O)=O)c1 (stereo unspecified) was tested. Which Potency did it give?
Answer: inconclusive: 0.447 µM [inhibitor, partial curve, poor fit]

Question: How did the Potency turn out when CC(C)C1Nc2ccc(C(=O)N3CCN(c4ccccn4)CC3)cc2NC1=O (stereo unspecified) was run?
Answer: inactive

Question: For O=C(CCl)N1CCN2C(=O)c3ccccc3C12c1ccc(Cl)cc1 (stereo unspecified), which Potency is on record?
Answer: inconclusive: 79.4 µM [inhibitor, single point]

Question: Which Potency does the source give for Cc1cc(C)n2nc[n+](C)c2n1 here?
Answer: inconclusive: 1.41 µM [inhibitor, partial curve, poor fit]

Question: With Cc1cccc(-n2cc(-c3ccccc3)nc2SCC(=O)Nc2ccccc2Cl)c1 as the molecule, how does the Potency read?
Answer: inconclusive: 25.1 µM [inhibitor, single point]

Question: With CC(C)n1cc(/C=N/Nc2ccc(C(=O)O)cc2)c2ccccc21 as the molecule, how does the Potency read?
Answer: active: 44.7 µM

Question: CCCc1nc2c(sc3nc4c(cc32)COC(C)(C)C4)c(=O)n1CCN(CC)CC was tested. Which Potency did it give?
Answer: inconclusive: 89.1 µM [inhibitor, single point]

Question: CC1CC2=C(NC(=S)NC2c2cccc(F)c2)/C(=C/c2cccc(F)c2)C1 (stereo unspecified) was tested. Which Potency did it give?
Answer: active: 31.6 µM

Question: For Cc1cc(/C=C2\C(=N)N3N=C(CC(=O)N4CCOCC4)SC3=NC2=O)c(C)n1Cc1ccccc1, which Potency is on record?
Answer: inconclusive: 70.8 µM [inhibitor, partial curve, poor fit]

Question: How did the Potency turn out when O=C(NCCN1CCCC1)c1ccc(CS(=O)(=O)c2c(Cl)cccc2Cl)o1 was run?
Answer: inconclusive: 39.8 µM [inhibitor, partial curve]

Question: How did the Potency turn out when Cc1cnc(C(=O)NCc2ccc(F)cc2)cn1 was run?
Answer: inactive

Question: With CCOC(=O)c1c(C)oc2cc(Br)c(O)c(Br)c12 as the molecule, how does the Potency read?
Answer: active: 6.31 µM

Question: Which Potency does the source give for CCN(CC)C(=S)SCC(=O)c1c(C)[nH]c2ccccc12 here?
Answer: inconclusive: 89.1 µM [inhibitor, single point]

Question: Cc1ccc(NC(=O)CSc2nnc(-c3ccccc3C)o2)cc1C was tested. Which Potency did it give?
Answer: inconclusive: 79.4 µM [inhibitor, single point]

Question: With CCOC(=O)c1c(C=O)c(C)n(Cc2ccc(C)cc2)c1C as the molecule, how does the Potency read?
Answer: inconclusive: 25.1 µM [inhibitor, partial curve, poor fit]

Question: CC(C)c1ccc(NS(=O)(=O)c2ccc3[nH]cc(C(=O)NC4CCCCC4)c(=O)c3c2)cc1 was tested. Which Potency did it give?
Answer: inconclusive: 20 µM [inhibitor, partial curve, poor fit]

Question: Which Potency does the source give for Cc1c(-n2c(=O)n(Cc3ccccc3)c(=O)c3[nH]cnc32)cccc1S(C)=O (stereo unspecified) here?
Answer: inconclusive: 89.1 µM [inhibitor, single point]

Question: CN1/C(=C\C=N\NC(=O)c2ccccc2Br)C(C)(C)c2ccccc21 was tested. Which Potency did it give?
Answer: inconclusive: 39.8 µM [inhibitor, single point]

Question: With COc1ccc(N2CC(C(=O)Nc3nnc(SCC(=O)N4CCOCC4)s3)CC2=O)cc1 (stereo unspecified) as the molecule, how does the Potency read?
Answer: active: 35.5 µM

Question: Which activity, negative = inhibition does the source give for COCCN(Cc1nc2ccccc2c(=O)[nH]1)C(=O)COc1ccccc1-c1ccccc1 here?
Answer: inactive: 0.994% [at 0.501 µM]

Question: O=S(=O)(Nc1cccc(C(F)(F)F)c1)c1cnc[nH]1 was tested. Which activity, negative = inhibition did it give?
Answer: inconclusive: -69.9% [inhibitor]

Question: With CN(CC(=O)Nc1ccc(N2CCOCC2)cc1)CC(=O)Nc1ccccc1[N+](=O)[O-] as the molecule, how does the Potency read?
Answer: inconclusive: 6.31 µM [inhibitor, partial curve, poor fit]

Question: Which Potency does the source give for S=C(Nc1ccc(Oc2ccccc2)cc1)NC1CCCCC1 here?
Answer: inactive

Question: How did the Potency turn out when COCCNC(=S)NNc1ccc(Cl)c(C(=O)O)c1 was run?
Answer: active: 17.8 µM

Question: Which activity, negative = inhibition does the source give for CCCC1CC(C)(/C(C)=N\NC(N)=S)OC1=O (stereo unspecified) here?
Answer: inactive: 14% [at 0.501 µM]

Question: For CCOc1ccc2c(c1)C(NC(C)=O)C(=O)N2CCN1CCOCC1 (stereo unspecified), which Potency is on record?
Answer: active: 15.8 µM

Question: With CNC(=S)NCCc1cc2c(OC)ccc(OC)c2[nH]c1=O as the molecule, how does the Potency read?
Answer: inconclusive: 50.1 µM [inhibitor, partial curve, poor fit]

Question: O=C1CCC(C(=O)N(Cc2ccco2)C2(C(=O)NC3CCCC3)CCCCC2)N1 (stereo unspecified) was tested. Which Potency did it give?
Answer: inconclusive: 89.1 µM [inhibitor, single point]

Question: For O=C(Nc1ccc2nccnc2c1)Nc1ccccc1Cl, which Potency is on record?
Answer: inconclusive: 50.1 µM [inhibitor, partial curve, poor fit]

Question: For CC(C)c1ccc(NC(=O)CCS(=O)(=O)c2ccc(Br)s2)cc1, which Potency is on record?
Answer: inconclusive: 44.7 µM [inhibitor, partial curve, poor fit]

Question: For Cc1cc(=O)[nH]c(NN=C(CC(C)C)CC(C)C)n1, which Potency is on record?
Answer: inconclusive: 25.1 µM [inhibitor, single point]

Question: Which Potency does the source give for Cc1cccc2cc(C#N)c(SCC#N)nc12 here?
Answer: active: 25.1 µM

Question: How did the Potency turn out when O=C(Nc1nc2c(s1)CCc1ccccc1-2)c1cccs1 was run?
Answer: inconclusive: 79.4 µM [inhibitor, single point]

Source: PubChem BioAssay AID504332 (National Center for Advancing Translational Sciences (NCATS), 2011)
